Here are results for 42 sequences from publication PMC7819943, “Rice protein-binding microarrays: a tool to detect cis-acting elements near promoter regions in rice”.

The other results are listed elsewhere or left out.

The test deals with T1, OsWOX13 (Oryza sativa, UniProt Q5QMM3 1-267).
T1 sequence: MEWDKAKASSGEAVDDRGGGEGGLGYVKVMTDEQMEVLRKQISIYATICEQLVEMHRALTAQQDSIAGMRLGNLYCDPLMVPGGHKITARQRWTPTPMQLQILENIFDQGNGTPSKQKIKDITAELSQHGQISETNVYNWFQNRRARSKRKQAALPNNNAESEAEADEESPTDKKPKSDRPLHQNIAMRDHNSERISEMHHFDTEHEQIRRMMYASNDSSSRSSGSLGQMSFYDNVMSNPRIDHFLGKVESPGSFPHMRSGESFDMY
The test is described as follows: protein-binding microarray (RPBM); PBS, 2% BSA, 51.3 ng/ul salmon testes DNA, 50 uM zinc acetate, 200 nM TF, 25 C, 1 h; high values mean tight binding. Conditions: protein: recombinant; tags: N-terminal polyhistidine and DsRed monomer fusion (pET32a); label: CyDye5-dUTP incorporated in the synthesized complementary strand; 3' TTTTT single-stranded linker to array surface; dsDNA, one strand shown. Summed up: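 Binding signal here means per-feature fluorescence intensity in arbitrary units. The values were read on an Axon 4000B scanner after a custom Agilent array, double-stranded by primer extension with Cy5-dUTP, was incubated with 200 nM protein at 25 °C for 1 h in PBS with 2% BSA, salmon testes DNA and 50 µM zinc acetate, then washed. The proteins were transcription factors with an N-terminal polyhistidine tag and DsRed, expressed in E. coli BL21-CodonPlus and purified on Ni–NTA.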
For the sequence “ACTAATACCGCTCTAATTTGATGGTCTATTCTATACTCCTCGGAGTCACCTAGTGCAG”, the binding signal was 6920 fluorescence intensity (a.u.).

Turning to “ATGATTCACAATTACCGAACCCTGTTTCCCTAGTATCTTTCGGAGTCACCTAGTGCAG”, the binding signal is 7420 fluorescence intensity (a.u.).

As to “ATGACCCAATCAGTTGTGTCACCCTGCCATTACGCATCTCCGGAGTCACCTAGTGCAG”, the binding signal is 4750 fluorescence intensity (a.u.).

For “ACATATACAATTAATTAATTAATACTCCCAAAAGTTCAGTCGGAGTCACCTAGTGCAG”, the binding signal was 37800 fluorescence intensity (a.u.).

Turning to “TCACACAATAAATTAAACTTCTAGACTTTGAATCACTCAGCGGAGTCACCTAGTGCAG”, the binding signal was 3660 fluorescence intensity (a.u.).

“CTTCTTAAACAGATTCTTTTCATCTTGAGCCATTGTTGATCGGAGTCACCTAGTGCAG”: the binding signal was 4230 fluorescence intensity (a.u.).

In the case of “AAAATTAAATAAAATAGACAATTAAAGTTGGATTAGTAAACGGAGTCACCTAGTGCAG”, the binding signal was 4920 fluorescence intensity (a.u.).

For the sequence “CTGATTTAATCACCTATATATAGTTAGTGGAGTATATATGCGGAGTCACCTAGTGCAG”, the binding signal is 29300 fluorescence intensity (a.u.).

Consider “TTAAAACTTGTCAATTATATAACCAGAGGGAGTAGGTGTTCGGAGTCACCTAGTGCAG”, for which the binding signal is 14900 fluorescence intensity (a.u.).

Regarding “CGTGATCAATTGACCTTTTGTGCTTCATTATAGATATGATCGGAGTCACCTAGTGCAG”, the binding signal was 11000 fluorescence intensity (a.u.).

In the case of “AGTTCAGATTGATGACTTCATCTGTGTTATCAAAATGCATCGGAGTCACCTAGTGCAG”, the binding signal is 30500 fluorescence intensity (a.u.).

Turning to “CCCTCAAGAAATAAATTGGCCAATCACTATTGCACAGCCGCGGAGTCACCTAGTGCAG”, the binding signal is 20000 fluorescence intensity (a.u.).

As for “AGGAAATTTTATTATATATGTATATTACTTCCTCCGTTTCCGGAGTCACCTAGTGCAG”, the binding signal was 3190 fluorescence intensity (a.u.).

As for “TATTTATCAATTATCCATGACGTAAGTCTTATGCAATATGCGGAGTCACCTAGTGCAG”, the binding signal is 11600 fluorescence intensity (a.u.).

As to “TTTTAAATTTAAAATAATTAAAACTCAATTAATAATTTGTCGGAGTCACCTAGTGCAG”, the binding signal is 31300 fluorescence intensity (a.u.).

Turning to “TTAATGCACTAATCAAGGACTGACGGGCGCCGCGCCACGACGGAGTCACCTAGTGCAG”, the binding signal is 9990 fluorescence intensity (a.u.).

For “TCCCTTGATGTGCAGATTAGTTATGTCTTTGCAGGGTAGTCGGAGTCACCTAGTGCAG”, the binding signal is 13200 fluorescence intensity (a.u.).

As for “CTAGACTTTTAGATAGGATGATGAAATGCGAAAAGTATGGCGGAGTCACCTAGTGCAG”, the binding signal is 4060 fluorescence intensity (a.u.).

“ATTAGGATTAATTAACTTTTCGCCTTGAAGCTCCCGTTGCCGGAGTCACCTAGTGCAG”: the binding signal is 24300 fluorescence intensity (a.u.).

On to “TTTATTGATTTGTTTCTCTGCTGTTTTCTTTCCAGCAAGGCGGAGTCACCTAGTGCAG”, for which the binding signal was 37900 fluorescence intensity (a.u.).

For “CAAAATTACCAAACCCATTAATTAACATCTTCAGTCAAAACGGAGTCACCTAGTGCAG”, the binding signal was 5070 fluorescence intensity (a.u.).

Turning to “GGAGGGTGAATTCGTTAATTATTATAAATGTAGGGGTGTACGGAGTCACCTAGTGCAG”, the binding signal is 7520 fluorescence intensity (a.u.).

As to “TGTGTCCAAATATTCAATGTGATTGGGGAAGCTGGAGTAGCGGAGTCACCTAGTGCAG”, the binding signal was 4990 fluorescence intensity (a.u.).

For “GAGTGGAATTGACTAGTACTAGTATAGTAGACGGACGGCCCGGAGTCACCTAGTGCAG”, the binding signal was 6340 fluorescence intensity (a.u.).

For the sequence “CTGATTTTACATGTCATTAAAATATTATTAATATCGATCACGGAGTCACCTAGTGCAG”, the binding signal was 6710 fluorescence intensity (a.u.).

For the sequence “GAAACTGATGATGACACTGTTAAATTGTGTTGTATAACTGCGGAGTCACCTAGTGCAG”, the binding signal is 30100 fluorescence intensity (a.u.).

In the case of “ATTGTCAAAATTTGTGTGATTGCCATCTCCTTCGCCATTGCGGAGTCACCTAGTGCAG”, the binding signal is 27000 fluorescence intensity (a.u.).

Take “TATGATAGGATAGGAGAAACAAGTTGTACGCCACGCCGCACGGAGTCACCTAGTGCAG”: the binding signal is 6520 fluorescence intensity (a.u.).

For the sequence “CCATTAACAAACTAAAATGACAGCTCCGCACTGCCCCAACCGGAGTCACCTAGTGCAG”, the binding signal is 11800 fluorescence intensity (a.u.).

On to “AAATTGCAATCTTCGCGTGACATCAAATTTCTCTTAACGTCGGAGTCACCTAGTGCAG”, for which the binding signal is 4300 fluorescence intensity (a.u.).

As to “TCCATGATTGCATGGGCCTACCAGCCCATGTCGAGTATGGCGGAGTCACCTAGTGCAG”, the binding signal was 31000 fluorescence intensity (a.u.).

Consider “AAATGTGGAATAATTAACTATTTACCACTCTTACGAATAGCGGAGTCACCTAGTGCAG”, for which the binding signal was 4100 fluorescence intensity (a.u.).

Turning to “TTAAAGATTGATCTCAGGGCTCTTGTTTAGATCCTGTCCGCGGAGTCACCTAGTGCAG”, the binding signal was 9580 fluorescence intensity (a.u.).

On to “GAGTAATTACGAGCTGCATTAACATAATCATGGTTTTCTCCGGAGTCACCTAGTGCAG”, for which the binding signal is 19100 fluorescence intensity (a.u.).

Regarding “TAACCAATCATATCAAATTTGGTGTCCTTCCAAATTCGACCGGAGTCACCTAGTGCAG”, the binding signal is 27300 fluorescence intensity (a.u.).

In the case of “TCCATAATTAGCGGCTGATTACTGTAGCATCACTGTAGCACGGAGTCACCTAGTGCAG”, the binding signal is 31200 fluorescence intensity (a.u.).

Turning to “TAATAATTGGTATTGTTGAGCCGAAGGATATGATAAAACTCGGAGTCACCTAGTGCAG”, the binding signal was 10800 fluorescence intensity (a.u.).

Take “TTAATTCTTACTAATGGATAGCTCCGTTTTACATGTTTGGCGGAGTCACCTAGTGCAG”: the binding signal was 4580 fluorescence intensity (a.u.).

On to “AATAATTTTGTAATCGGTAGTTGTTTCCTTTTACAAACTCCGGAGTCACCTAGTGCAG”, for which the binding signal was 11400 fluorescence intensity (a.u.).

“TCGCTTGATTCTCATCCTGTAATCAACATAATAATCGCTTCGGAGTCACCTAGTGCAG”: the binding signal is 4400 fluorescence intensity (a.u.).

Regarding “CATAATTAACACCAACTAACTATCCAAAGCTTCACGAGATCGGAGTCACCTAGTGCAG”, the binding signal is 27800 fluorescence intensity (a.u.).

Consider “ATATTTAAGTTGAGCGTATGATTGAAATCATCAGTGAGAACGGAGTCACCTAGTGCAG”, for which the binding signal was 9960 fluorescence intensity (a.u.).
